# Assay results published in publication PMC4336329 (PLoS ONE, 2015).
# The campaign covered roughly 310,000 compounds. About 2,200 (0.71%) showed an effect of 50% or more. Effects have a minus sign here. The list shows a part of the results.
# Molecular target: human ether-à-go-go-related gene (hERG) potassium channel (human, UniProt Q12809)
# Assay: primary screen, population patch clamp on CHO cells stably expressing hERG
# Sequence of human ether-à-go-go-related gene (hERG) potassium channel (Q12809 whole entry, looked up): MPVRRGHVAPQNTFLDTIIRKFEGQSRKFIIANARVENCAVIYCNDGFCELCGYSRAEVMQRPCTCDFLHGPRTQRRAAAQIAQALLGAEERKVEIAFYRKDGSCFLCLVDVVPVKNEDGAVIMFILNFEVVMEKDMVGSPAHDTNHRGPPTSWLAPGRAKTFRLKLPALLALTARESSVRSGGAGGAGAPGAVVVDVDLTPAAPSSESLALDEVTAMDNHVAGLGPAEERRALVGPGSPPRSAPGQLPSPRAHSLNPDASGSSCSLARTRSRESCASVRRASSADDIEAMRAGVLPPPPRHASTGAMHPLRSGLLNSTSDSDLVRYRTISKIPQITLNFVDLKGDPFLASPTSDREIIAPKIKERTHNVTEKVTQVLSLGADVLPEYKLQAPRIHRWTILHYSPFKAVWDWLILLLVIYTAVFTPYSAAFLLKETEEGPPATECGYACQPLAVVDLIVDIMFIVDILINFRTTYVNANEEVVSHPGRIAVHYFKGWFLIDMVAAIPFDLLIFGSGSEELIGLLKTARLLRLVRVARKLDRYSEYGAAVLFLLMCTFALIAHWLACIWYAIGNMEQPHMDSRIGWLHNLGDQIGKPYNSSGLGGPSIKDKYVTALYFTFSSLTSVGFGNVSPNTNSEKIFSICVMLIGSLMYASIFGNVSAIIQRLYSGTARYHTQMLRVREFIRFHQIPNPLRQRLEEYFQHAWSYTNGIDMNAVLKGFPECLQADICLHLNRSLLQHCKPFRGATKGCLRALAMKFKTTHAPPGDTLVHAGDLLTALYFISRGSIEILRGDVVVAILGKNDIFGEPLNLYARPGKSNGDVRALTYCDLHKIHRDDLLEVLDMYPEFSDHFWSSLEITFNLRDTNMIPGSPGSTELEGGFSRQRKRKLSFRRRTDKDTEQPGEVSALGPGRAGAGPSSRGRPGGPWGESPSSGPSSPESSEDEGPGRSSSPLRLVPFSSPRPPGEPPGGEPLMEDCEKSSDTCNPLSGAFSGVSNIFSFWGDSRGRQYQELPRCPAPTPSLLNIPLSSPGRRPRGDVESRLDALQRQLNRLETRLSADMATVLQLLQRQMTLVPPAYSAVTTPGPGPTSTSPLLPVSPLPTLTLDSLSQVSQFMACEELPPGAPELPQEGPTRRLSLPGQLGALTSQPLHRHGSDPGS
row,Structure (SMILES),"hERG current change (%, negative = inhibition) at 1uM [%]"
1,COc1ccc(/C=C2\SC(=S)N(CC(=O)NC3CCS(=O)(=O)C3)C2=O)cc1 (stereo not drawn),17.2
2,CCn1c(C(=O)NCc2ccccn2)cc2sccc21,4.37
3,CN(C)CCn1c2c(c(SCC(=O)Nc3ccc4c(c3)OCCO4)nc1=O)CCCC2,7.17
4,COc1ccc(-n2ccnc2SCC(=O)Nc2cc(C)on2)cc1,12.1
5,CCOC(=O)Cc1nnc(NC(=O)c2ccccc2OC)s1,12.7
6,COc1ccccc1Oc1ccc(NC(=O)c2ccccc2)cc1,10.4
7,Cc1cc([N+](=O)[O-])nn1CCCC(=O)N1CCN(c2ccccc2)CC1,0.954
8,Cc1cc(C)nc(Sc2nc(C)nc3c2oc2ccccc23)n1,0.955
9,CCOc1ccc(-c2cc(C)n3nc(C(N)=O)cc3n2)cc1,7.16
10,CCOC(=O)C1=C(c2ccccc2)OC(N)=C(C#N)C1c1ccc(Cl)s1 (stereo not drawn),6
11,O=C(COC(=O)[C@@H]1CC(O)CN1S(=O)(=O)c1ccc([N+](=O)[O-])cc1)NC12CC3CC(CC(C3)C1)C2 (stereo partly drawn),1.67
12,COCCOC(=O)c1c(C)oc2ccc(OCc3ccccc3)cc12,0.412
13,O=C(COC(=O)c1ccccc1SCC(=O)N1CCCC1)NC1CCCCC1,14.6
14,Cc1ccc(CS(=O)Cc2ccc(C(=O)NC3CCCCC3)o2)cc1 (stereo not drawn),7.95
15,CCOc1ccccc1CNc1nc2nc3c(c(=O)n2[nH]1)CCC3,18.1
16,CCOC(=O)c1ccc(NC(=O)c2nc[nH]c2C(=O)NC2CCN(C(=O)OC(C)(C)C)CC2)cc1,13.5
17,CC(C)CC(NC(=O)c1ccccc1)C(=O)OCC(=O)Nc1ccc(Br)cn1 (stereo not drawn),6.08
18,O=C(CCSc1ccccc1)Nc1ccccc1Br,5.93
19,CC(C)(C)N1CC23CCC(C[C@@H]2C1=O)O3 (stereo partly drawn),4.22
20,CCCCc1nnc(NC(=O)c2cccc(S(=O)(=O)N3CCN(C)CC3)c2)s1,5.56
21,CCOc1cc2[nH]c(=S)n(CCC(=O)NCc3ccco3)c(=O)c2cc1OCC,3.76
22,COc1ccc(-c2ccc(CCC(=O)O)o2)cc1,4.37
23,O=C(Nc1nnc(SCC(=O)N2CCCC2)s1)C1CC(=O)N(c2ccc(F)cc2)C1 (stereo not drawn),14.7

row,Structure (SMILES),"hERG current change (%, negative = inhibition) at 1uM [%]"
1,COC(=O)C1=NN[C@H](C(=O)OC(C)(C)C)[C@H]1c1ccccc1,6.7
2,OCC[C@@H]1C[C@H](O)[C@@H](O)[C@@]2(OCCCc3ccccc32)O1,16.3
3,CC1(C)CC(N2CCCC2)=CC(=[N+]2CCCCC2)C1.[I-],13.4
4,Cc1nc(N2CCOCC2)c2cc(-c3ccccc3)sc2n1,7.87
5,CCCCN(CCCC)CCNC(=O)c1cn(CC)c2ccc(S(=O)(=O)N3CCc4ccccc4C3)cc2c1=O,-2.12
6,CCOc1cccc2sc(Cl)nc12,11.1
7,COCCN(C(=O)c1oc2ccccc2c1COC)c1c(N)n(CC(C)C)c(=O)[nH]c1=O,12.8
8,Cc1ccc2nc(N3CCN(C)CC3)[nH]c2c1.Cl,12.9
9,Cc1ccccc1NC(=O)/C=C1\SC(=O)NC1=O,10.6
10,C=CCC(NC(C)c1ccccc1)c1ccco1 (stereo not drawn),-6.93
11,CCOCCCNC(=S)N1C2CCC1CC(NC(=O)NC13CC4CC(CC(C4)C1)C3)C2 (stereo not drawn),9.44
12,CCCNCc1cc(OC)c(OCc2ccccc2)cc1Br.Cl,8.9
13,COc1ccc(NC(=O)CSc2nc(C3CC3)nc3ccccc23)c(OC)c1,11.5
14,Cc1ccc2sc(N3CCN(CCNC(=O)c4ccco4)CC3)nc2c1C.Cl,-12.6
15,COc1ccc(C(C)(C)C)cc1NC(=O)COC(=O)c1ncc(Cl)c(Cl)c1Cl,6.78
16,N#Cc1ccc(CSc2nnc(-c3cccnc3)o2)cc1,-3.75
17,O=C(Cc1cccs1)N1CCCC(c2nc3c(nnn3Cc3ccccc3Cl)c(=O)[nH]2)C1 (stereo not drawn),-7.61
18,Cc1ccc(C(=O)NNC(=O)c2cc(C)nc3ccccc23)cc1,5.58
19,CC(=O)C1=NOC2C(=O)N(c3ccccc3)C(=O)C12 (stereo not drawn),9.42
20,Cc1ccc(-c2nc3ccc(Cl)cc3n2OC(C)C(=O)O)cc1 (stereo not drawn),11
21,O=C(CNC(=O)C1(c2ccccc2)CC1)Nc1ccc(F)c(F)c1,9.39
22,C(/C=C/c1ccccn1)=C\c1ccccc1,7.67
23,CCCCCCn1c(O)c(/C=C2\C=NN=C2c2ccccc2)sc1=S,12.5

row,Structure (SMILES),"hERG current change (%, negative = inhibition) at 1uM [%]"
1,COc1cc(NC(=O)CN2C(=O)NC(C)(CCC(C)C)C2=O)cc(OC)c1 (stereo not drawn),1.73
2,O=C(NCc1ccc(F)cc1)C(=O)NCC1CCCN1S(=O)(=O)c1ccccc1 (stereo not drawn),-3.58
3,CC(C)C(=O)N(Cc1ccc(F)cc1)Cc1nc2ccccc2c(=O)[nH]1,9.78
4,COc1ccc2c(c1)c(=O)c(C(=O)O)c(-c1ccc3c(c1)OCO3)n2C,-3.85
5,Br.CCCCC(CCC(=O)O)(C(=O)OCC)c1csc(Nc2ccc(OCC)cc2)n1 (stereo not drawn),8.27
6,CN1C(=O)CC(N2CCN(CCN=CC3=C(O)CC(C)(C)CC3=O)CC2)C1=O (stereo not drawn),17.2
7,CCOc1ccc(NC(=O)COC(=O)c2ccc3c(c2)C(=O)N(CCc2ccccc2)C3=O)cc1,12.4
8,COc1ccc(C(=O)Nc2ccccc2C(=O)NC(Cc2ccc(O)cc2)C(=O)NNC(=O)c2ccccc2)cc1 (stereo not drawn),7.58
9,C#CCN(C)CCCOc1ccc(Cl)cc1Cl.Cl,8.12
10,CCC(=NC1CC1)c1c(O)n(-c2ccc(OC)cc2)c(=O)[nH]c1=O,16.9
11,CC1CCN(C(=O)CSc2nnc(-c3ccncc3)n2C)CC1,13.2
12,O=[N+]([O-])c1ccc(Oc2ccc(/C=N/O)cc2)nc1,9.68
13,CCOc1ccc(CCNC(=O)COC(=O)c2c(OC)cccc2OC)cc1OCC,2.73
14,Cc1cc(C)cc(Oc2nc(C(F)(F)F)nc3ccccc23)c1,12.4
15,CCOc1ccc(CC(=O)N2CCN(c3ccc(N4CCOCC4)nn3)CC2)cc1OCC,8.71
16,O=C(CSc1nnnn1-c1cccnc1)Nc1ccc(OCc2ccccc2)cc1,-6.39
17,Cc1cccc(C)c1-n1c(SCC(=O)NCc2ccco2)nc2ccccc2c1=O,-9.19
18,COc1ccc(C2C(C(C)=O)=C(C)Nc3ncnn32)cc1 (stereo not drawn),14.5
19,CN(C)C(=O)c1cn(-c2ccc(Cl)cc2)c(=O)c2ccccc12,-1.44
20,O=C(Nc1ccc(F)cc1F)c1csc(-c2cccs2)n1,21.1
21,CC(=O)c1ccc(NC(=S)NCc2cccnc2)cc1,5.13
22,O=C(O)c1cc(=O)c2ccccc2[nH]1,12.6
23,COc1ccc(N2C(=O)CCC(C(=O)Nc3ccccn3)C2c2ccc(OC)c(OC)c2)cc1 (stereo not drawn),17.2

row,Structure (SMILES),"hERG current change (%, negative = inhibition) at 1uM [%]"
1,COC(=O)C1=C(c2ccc(F)cc2OCc2ccccc2)C[C@@H]2CC[C@H]1N2C(=O)N1CCC(C)CC1,11
2,CC(=O)n1c(Cl)c(NC(=O)CCl)c2ccccc21,1.44
3,COc1ccccc1C1C2=C(CCCC2=O)N(CC(=O)O)C2=C1C(=O)CCC2,16.6
4,CCOC(=O)c1c(C)oc2ccc(NS(=O)(=O)c3cccs3)cc12,9.68
5,Cc1cc2c(ncn2Cc2ccccc2)c(N)c1C,11.6
6,Cc1cc(NC(=O)C2=C(O)c3ccccc3S(=O)(=O)N2C)no1,12.7
7,COc1ccc(/C=N/OC/C(O)=C(\C#N)c2nc3ccccc3[nH]2)cc1,-13
8,COc1ccccc1OCCSc1nnc(C)n1-c1ccccc1,2.16
9,Cc1cc(NC(=O)CSc2nc3ccccc3s2)no1,15.2
10,COc1ccc(NC(=S)N2CCN(Cc3cccc(F)c3)CC2)c(OC)c1,4.54
11,CCNC(=O)COC(=O)Cc1ccc(Cl)cc1Cl,8.35
12,CN1CCN(c2ccc(S(=O)(=O)N3CCOCC3)cc2NC(=O)Cc2ccccc2F)CC1,0.865
13,COc1ccccc1CC(=O)NC1CC1,11.3
14,CCNS(=O)(=O)c1ccc(NC(=O)Cn2cc([N+](=O)[O-])cn2)cc1,19
15,COc1ccc(CN2C(=O)CS/C2=N/N=C/c2cccs2)cc1,11.1
16,S=c1[nH]nc(-c2ccco2)n1/N=C/C=C/c1ccco1,16.3
17,C/C(=N\NC(=O)c1c(Br)c(C)nn1C)c1cccc(NC(=O)c2ccccc2C)c1,-0.655
18,CN(C)C1=NC(=O)/C(=C\c2ccccc2)S1,11.7
19,Cc1nn(C)cc1/C=N/n1nnnc1N,-3.66
20,COc1ccc(Br)cc1CNC(=O)C1CCCN(S(C)(=O)=O)C1 (stereo not drawn),-7.67
21,O=S(=O)(c1cccc(-c2cn3ccccc3n2)c1)N1CCCC1,-0.2
